# Measurements published in the supplement of paper PMC8728848.
# This is one part of the list.
# Legend:
# Experiment in all cases: glycan array binding signal (z-score within array); higher = stronger binding
# Details in all cases: glycan notation: IUPAC condensed, linker removed
# Neu5Ac(a2-8)Neu5Ac = target: Neu5Ac(a2-8)Neu5Ac
# How it was run: (§1)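 Glycan array data came from 3228 arrays in the Consortium for Functional Glycomics database, and only arrays with an available protein sequence were kept. Glycan names were put into IUPAC-condensed notation, and columns mapping to the same glycan were averaged. The binding signal is a within-array Z-score, averaged across arrays of one protein sequence run at different concentrations or buffers and across linkers. A negative Z-score can be read as non-binding.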
# [1] = target: Neu5Ac(a2-8)Neu5Ac(a2-3)Gal(b1-3)GalNAc(b1-4)[Neu5Ac(a2-3)]Gal(b1-4)Glc
# How it was run: as §1
# [2] = target: Neu5Ac(a2-8)Neu5Ac(a2-3)Gal(b1-3)GalNAc(b1-4)[Neu5Ac(a2-8)Neu5Ac(a2-3)]Gal(b1-4)Glc
# How it was run: as §1
# [3] = target: Neu5Ac(a2-8)Neu5Ac(a2-3)Gal(b1-4)Glc
# How it was run: as §1
# [4] = target: Neu5Ac(a2-8)Neu5Ac(a2-3)Gal(b1-4)GlcNAc
# How it was run: as §1
# [5] = target: Neu5Ac(a2-8)Neu5Ac(a2-3)[Gal(b1-3)GalNAc(b1-4)]Gal(b1-4)Glc
# How it was run: as §1
# [6] = target: Neu5Ac(a2-8)Neu5Ac(a2-3)[GalNAc(b1-4)]Gal(b1-4)Glc
# How it was run: as §1
# [7] = target: Neu5Ac(a2-8)Neu5Ac(a2-8)Neu5Ac
# How it was run: as §1
# [8] = target: Neu5Ac(a2-8)Neu5Ac(a2-8)Neu5Ac(a2-3)Gal(b1-4)Glc
# How it was run: as §1
# [9] = target: Neu5Ac(a2-8)Neu5Ac(a2-8)Neu5Ac(a2-3)[Gal(b1-3)GalNAc(b1-4)]Gal(b1-4)Glc
# How it was run: as §1
# [10] = target: Neu5Ac(a2-8)Neu5Ac(a2-8)Neu5Ac(a2-3)[GalNAc(b1-4)]Gal(b1-4)Glc
# How it was run: as §1
# [11] = target: Neu5Ac(a2-8)Neu5Ac(a2-8)Neu5Ac(a2-8)Neu5Ac(a2-3)[GalNAc(b1-4)]Gal(b1-4)Glc
# How it was run: as §1
# [12] = target: Neu5Ac(a2-8)Neu5Gc(a2-3)Gal(b1-4)GlcNAc
# How it was run: as §1
# [13] = target: Neu5Ac(b2-6)Gal(b1-4)GlcNAc
# How it was run: as §1
# Neu5Ac(b2-6)GalNAc = target: Neu5Ac(b2-6)GalNAc
# How it was run: as §1
# [14] = target: Neu5Ac9Ac(a2-3)Gal(b1-3)GlcNAc
# How it was run: as §1
# [15] = target: Neu5Ac9Ac(a2-3)Gal(b1-4)GlcNAc
# How it was run: as §1
# [16] = target: Neu5Ac9Ac(a2-6)Gal(b1-4)GlcNAc
# How it was run: as §1
# [17] = target: Neu5Gc(a2-3)Gal(b1-3)GlcNAc
# How it was run: as §1
# [18] = target: Neu5Gc(a2-3)Gal(b1-3)[Fuc(a1-4)]GlcNAc
# How it was run: as §1
# Neu5Gc(a2-3)Gal(b1-4)Glc = target: Neu5Gc(a2-3)Gal(b1-4)Glc
# How it was run: as §1
# [19] = target: Neu5Gc(a2-3)Gal(b1-4)GlcNAc
# How it was run: as §1
# [20] = target: Neu5Gc(a2-3)Gal(b1-4)GlcNAc(b1-3)Gal(b1-4)GlcNAc(b1-2)Man(a1-3)[Neu5Gc(a2-3)Gal(b1-4)GlcNAc(b1-3)Gal(b1-4)GlcNAc(b1-2)Man(a1-6)]Man(b1-4)GlcNAc(b1-4)GlcNAc
# How it was run: as §1
# [21] = target: Neu5Gc(a2-3)Gal(b1-4)[Fuc(a1-3)]GlcNAc
# How it was run: as §1
# [22] = target: Neu5Gc(a2-6)Gal(b1-4)GlcNAc
# How it was run: as §1
# Neu5Gc(a2-6)GalNAc = target: Neu5Gc(a2-6)GalNAc
# How it was run: as §1
# [23] = target: Neu5Gc(a2-8)Neu5Ac(a2-3)Gal(b1-4)GlcNAc
# How it was run: as §1
# [24] = target: Neu5Gc(a2-8)Neu5Gc(a2-3)Gal(b1-4)GlcNAc
# How it was run: as §1
# [25] = target: Neu5Gc(a2-8)Neu5Gc(a2-3)Gal(b1-4)GlcNAc(b1-3)Gal(b1-4)GlcNAc
# How it was run: as §1
# [26] = target: Neu5Gc(a2-8)Neu5Gc(a2-6)Gal(b1-4)GlcNAc
# How it was run: as §1
# [27] = target: Neu5Gc(b2-6)Gal(b1-4)GlcNAc
# How it was run: as §1
binder,measurement,setting,value
OGAN (protein) MVQKESQATLEERESELSSNPAASAGASLEPPAAPAPGEDNPAGAGGAAVAGAAGGARRFLCGVVEGFYGRPWVMEQRKELFRRLQKWELNTYLYAPKDDYKHRMFWREMYSVEEAEQLMTLISAAREYEIEFIYAISPGLDITFSNPKEVSTLKRKLDQVSQFGCRSFALLFNDIDHNMCAADKEVFSSFAHAQVSITNEIYQYLGEPETFLFCPTEYCGTFCYPNVSQSPYLRTVGEKLLPGIEVLWTGPKVVSKEIPVESIEEVSKIIKRAPVIWDNIHANDYDQKRLFLGPYKGRSTELIPRLKGVLTNPNCEFEANYVAIHTLATWYKSNMNGVRKDVVMTDSEDSTVSIQIKLENEGSDEDIETDVLYSPQMALKLALTEWLQEFGVPHQY,glycan array binding signal (z-score),Neu5Ac(a2-8)Neu5Ac,-0.063
same,glycan array binding signal (z-score),[1],-0.033
same,glycan array binding signal (z-score),[2],-0.058
same,glycan array binding signal (z-score),[3],-0.057
same,glycan array binding signal (z-score),[4],-0.079
same,glycan array binding signal (z-score),[5],-0.052
same,glycan array binding signal (z-score),[6],-0.034
same,glycan array binding signal (z-score),[7],-0.014
same,glycan array binding signal (z-score),[8],-0.034
same,glycan array binding signal (z-score),[9],-0.099
same,glycan array binding signal (z-score),[10],-0.065
same,glycan array binding signal (z-score),[11],-0.016
same,glycan array binding signal (z-score),[12],-0.058
same,glycan array binding signal (z-score),[13],-0.089
same,glycan array binding signal (z-score),Neu5Ac(b2-6)GalNAc,-0.022
same,glycan array binding signal (z-score),[14],-0.118
same,glycan array binding signal (z-score),[15],-0.02
same,glycan array binding signal (z-score),[16],-0.067
same,glycan array binding signal (z-score),[17],-0.081
same,glycan array binding signal (z-score),[18],-0.055
same,glycan array binding signal (z-score),Neu5Gc(a2-3)Gal(b1-4)Glc,-0.044
same,glycan array binding signal (z-score),[19],-0.055
same,glycan array binding signal (z-score),[20],-0.044
same,glycan array binding signal (z-score),[21],-0.051
same,glycan array binding signal (z-score),[22],-0.071
same,glycan array binding signal (z-score),Neu5Gc(a2-6)GalNAc,-0.093
same,glycan array binding signal (z-score),[23],-0.064
same,glycan array binding signal (z-score),[24],-0.063
same,glycan array binding signal (z-score),[25],-0.062
same,glycan array binding signal (z-score),[26],-0.074
same,glycan array binding signal (z-score),[27],-0.021
